Reference: the supplement of paper PMC4604168 (melanoma cell lines)
The other results are listed elsewhere or left out. Repeats are few or missing, and single values can be far off.

What was measured:
Assay in all cases: cell count relative to DMSO control; melanoma cells; higher = more viable cells
Conditions in all cases: library dose: standard library concentration; 72 h
A101D = tested on: A101D
A2058 = tested on: A2058
A375 = tested on: A375
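Also: cells treated in 1,536-well plates, then fixed and DAPI-stained, with nuclei counted from automated high-throughput microscope images.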

Structure (SMILES) | cell count (A101D) [%] | cell count (A2058) [%] | cell count (A375) [%]
Cc1cn(-c2cc(NC(=O)c3ccc(C)c(Nc4nccc(-c5cccnc5)n4)c3)cc(C(F)(F)F)c2)cn1 [nilotinib] + OCc1c[nH]c2ccccc12 [Indole-3-carbinol] (first compound 1 µM, partner dose 4 µM) | 128 | 120 | 158
COc1ccc(C2=N[C@@H](c3ccc(Cl)cc3)[C@@H](c3ccc(Cl)cc3)N2C(=O)N2CCNC(=O)C2)c(OC(C)C)c1 [Nutlin-3] + CCN(CC)CCNC(=O)c1c(C)[nH]c(/C=C2\C(=O)Nc3ccc(F)cc32)c1C [sunitinib] (first compound 0.5 µM, partner dose 2 µM) | 52.5 | 66.9 | 73.2
Cc1cc(Nc2cc(N3CCN(C)CC3)nc(/C=C/c3ccccc3)n2)n[nH]1 + CC(C)(C)c1cnc(CSc2cnc(NC(=O)C3CCNCC3)s2)o1 [SNS-032] (first compound 0.2 µM, partner dose 0.05 µM) | 64.9 | 88.5 | 85.7
COc1ccc(C2=N[C@@H](c3ccc(Cl)cc3)[C@@H](c3ccc(Cl)cc3)N2C(=O)N2CCNC(=O)C2)c(OC(C)C)c1 [Nutlin-3] + C[C@@H](Oc1cc(-c2cnn(C3CCNCC3)c2)cnc1N)c1c(Cl)ccc(F)c1Cl [Crizotinib] (first compound 0.5 µM, partner dose 1 µM) | 69.4 | 58.2 | 53.9
COc1ccc(C2=N[C@@H](c3ccc(Cl)cc3)[C@@H](c3ccc(Cl)cc3)N2C(=O)N2CCNC(=O)C2)c(OC(C)C)c1 [Nutlin-3] + Cn1cncc1[C@@](N)(c1ccc(Cl)cc1)c1ccc2c(c1)c(-c1cccc(Cl)c1)cc(=O)n2C [tipifarnib] (first compound 0.5 µM, partner dose 0.05 µM) | 74.7 | 76.8 | 85.3
COc1ccc(C2=N[C@@H](c3ccc(Cl)cc3)[C@@H](c3ccc(Cl)cc3)N2C(=O)N2CCNC(=O)C2)c(OC(C)C)c1 [Nutlin-3] + NC1(c2ccc(-c3nc4ccn5c(=O)[nH]nc5c4cc3-c3ccccc3)cc2)CCC1 [MK2206] (first compound 0.5 µM, partner dose 2 µM) | 71.4 | 79.8 | 83
Cn1c(=O)n(-c2ccc(C(C)(C)C#N)cc2)c2c3cc(-c4cnc5ccccc5c4)ccc3ncc21 + Nc1nc(F)nc2c1ncn2[C@@H]1O[C@H](CO)[C@@H](O)[C@@H]1O [fludarabine] (first compound 0.02 µM, partner dose 1 µM) | 76.8 | 66.3 | 32.8
Cc1cn(-c2cc(NC(=O)c3ccc(C)c(Nc4nccc(-c5cccnc5)n4)c3)cc(C(F)(F)F)c2)cn1 [nilotinib] + Nc1ncn([C@H]2C[C@H](O)[C@@H](CO)O2)c(=O)n1 [decitabine] (first compound 1 µM, partner dose 0.5 µM) | 88.1 | 86.9 | 128
Cc1cc(Nc2cc(N3CCN(C)CC3)nc(/C=C/c3ccccc3)n2)n[nH]1 + CCCS(=O)(=O)Nc1ccc(F)c(C(=O)c2c[nH]c3ncc(Cl)cc23)c1F [PLX4720] (first compound 0.2 µM, partner dose 0.4 µM) | 71.2 | 93 | 103
